# From ChEMBL document CHEMBL4888484, “Replenishing the malaria drug discovery pipeline: Screening and hit evaluation of the MMV Hit Generation Library 1 (HGL1) against asexual blood stage Plasmodium falciparum ,using a nano luciferase reporter read-out” (2022)
# Among all 150,000 compounds or so, about 540 (0.36%) showed an effect of 50% or more. Some of the results follow. Where a SMILES comes first, the peptide text is derived from it. The star is where a group is joined. Cbz = O=C(OCc1ccccc1)*
# Test system: Plasmodium falciparum
# Experiment: Primary screen in NF54 nanoGlo assay, in single point, at 2uM, 72h; a lower Z score goes with more inhibition
# Assay type: functional, Erythrocyte
# Details: timepoint 72 hour
SMILES,% Inhibition [%],Z score
COC(=O)Nc1ccccc1OCC(=O)Nc1ccc(N2CC(C)OC(C)C2)cc1 (centres undefined),-5,0.86
CC(C)CN1CCN2C(=O)[C@H](C)N(C(=O)COc3ccc(F)cc3)C[C@H]2C1=O,-26,2.31
NC(=O)c1cccc(CNC2(c3ccccc3)CCC2)c1,-2,0.2
COc1cccc(C(=O)N2CCN(c3ccc(NC(=O)c4ccc(F)cc4F)cn3)CC2)c1,-13,1.74
CN1C/C(=N/S(=O)(=O)c2ccccc2)N(C)C1=O,-6,0.83
Cc1nnc(CN(C)CC(=O)N2CCCCC[C@@H]2CC(C)C)n1C,-16,1.7
Cc1nn(-c2ccc(-c3noc(C4CC4)n3)cc2)cc1C(=O)Nc1cc(F)ccc1F,-11,2.09
O=C(c1csc2c1CCCC2)N1CCN(c2cnccn2)CC1,7,-1.35
CC(C)(C)CC(CCNC1(CO)CCOC1)NC(=O)OC(C)(C)C (centres undefined),-2,0.46
Cc1ccc(NS(=O)(=O)c2cc(C(=O)N3CCOCC3)cs2)cc1C,-14,1.39
CCN(CC)Cc1oc2ccc(Cl)cc2c1-c1ccc(OC)cc1,-5,0.76
Cc1cc(Br)cc(C)c1OCCCN(C)C,-4,0.73
O=C(CN1CCN(S(=O)(=O)c2ccc(F)cc2)CC1)NCC1(N2CCOCC2)CCCCC1,-44,5.2
Cc1nc2ncc(-c3ccc(N4CCOCC4)cc3)cn2n1,8,-1.14
NC(=NOCc1ccccc1F)c1ccccc1CN1CCCCC1,-2,0.29
CCOc1ccc(S(=O)(=O)N2CCC(c3nncn3C(C)C)CC2)cc1,-15,1.75
Cc1ccc(S(=O)(=O)NCC(=O)OCC(=O)N2CCNC2=O)cc1C,-12,1.86
COc1ccccc1N1CCC(N2C(=O)[C@@H]3CCCN3C2=O)C1=O (some centres undefined),-10,1.32
Cc1ccc2nc(-c3ccccc3F)c(NC(=O)Nc3cccc(C(F)(F)F)c3)n2c1,-9,1.47
O=C1N[C@@H](C2CCCCC2)C(=O)N[C@@H](Cc2ccccc2)C(=O)NCc2cn(nn2)CCOc2ccc(Cl)cc21,-5,0.91
COc1ccc(O)c(-c2ccnc3c(C(=O)Nc4ccccn4)cnn23)c1,2,-0.21

SMILES,% Inhibition [%],Z score
O=S(=O)(NCc1ccsc1)c1cccnc1,-20,2.9
CCC(CC)C(=O)Nc1cc(OC)cc(OC)c1,-2,0.33
O=C(C1CCN(c2nc3cccnc3s2)CC1)N1CCC(N2CCCCC2)CC1,-19,1.67
COCCCOC1CN(C(=O)NC2CCCCC2)C1,2,-0.36
O=C(NCc1cccc(N2CCCC2)c1)c1cncnc1,0,0.06
O=C(CN(CC(=O)NC1CC1)C1CCCCC1)NC1CC1,14,-1.9
CCn1ncc2c1CCCC2NC(C)C(=O)NC(C)c1ccccc1 (centres undefined),-7,0.66
CCn1cc(CNc2nncn2-c2ccccc2)cn1,4,-0.61
COc1nsc(CNC(=O)Nc2ccn(C)n2)c1Br,16,-1.9
O=C(C[C@H]1COCCN1C(=O)c1ccc(Cl)o1)c1ccco1,5,-0.78
CC(=O)NCc1nnc(C(C)(C)C)s1,-8,0.81
Cc1ccc2c(c1)C(=O)N(CCC(=O)NCC1CCCCCCC1)C2=O,-3,0.34
Cc1ccc(Cc2nnn(CC(=O)NC(C)C)n2)cc1,-10,0.92
Clc1ccc(-c2csc3ncnc(N4CCc5ccccc54)c23)cc1,-5,0.45
O=C(O)c1cnn(C2CCN(c3ncncc3-c3ccccc3)CC2)c1,-10,1.92
Cn1nccc1C(=O)NC(C)(C)c1nc2c(c(C(N)=O)n1)OCCO2,-3,0.36
CCCN1CCN(C(=O)c2nnn([C@H]3CCNC3)c2C)c2ccc(F)cc21,-18,2.37
CCc1nc(-c2ccccc2)nc(N2CCN(C(=O)N(C)C)CC2)c1Cc1cccc(C)c1,-27,2.41
O=C(N[C@H]1CCN(Cc2noc(-c3ccccc3)n2)C1)c1ccoc1,0,0.03
CC(=O)N(Cc1ccco1)c1ccc(C)cc1,-8,0.87
Cc1ccc(CN2CCCN(c3ccc(NC(=O)c4cccs4)cc3)C2=O)cc1,-2,0.25

SMILES,% Inhibition [%],Z score
CC(C)c1ccoc1C(=O)N1CCC[C@H](N2CCCC2)CC1,4,-0.61
Cc1ccccc1OCC(=O)NC[C@H](O)c1ccc(-c2cccs2)s1,4,-0.56
Cc1ccc(CNS(=O)(=O)c2cc3c(=O)n(C)nc(C)n3c2)o1,2,-0.26
c1cnc2nc(CN3CCC[C@H](c4nnc[nH]4)C3)nn2c1,-5,0.99
O=S(=O)(c1ccc(F)cc1F)N1CCC2(CC1)Nc1ccc(Cl)cc1-n1cccc12,-12,1.6
Cc1ccc(-c2cc3c(=O)n(Cc4noc(CN5CCN(C(C)C)CC5)n4)ccn3n2)cc1,-4,0.55
CCN(CC(C)(C)O)C(=O)C1CC(C)(O)C1 (centres undefined),-28,3.32
Cn1ncc2c1CCCN(S(=O)(=O)CC13CCC(CC1)C3)C2,0,0.01
C[C@H]1CN(C(=O)c2cc(O)nc3ccc(Br)cc23)CCN1,-5,0.54
CCOc1ccc(N2CCC(C(=O)NCc3ccccc3)CC2)nn1,-13,1.63
CCCC1(C2CCN(C(=O)CC3=CCCCC3)CC2)NC(=O)N(CCC2CCCN2C)C1=O (centres undefined),8,-1.17
Cc1csc(NC(=O)CC[C@@H](C)[C@H]2CC[C@H]3[C@@H]4[C@H](O)C[C@@H]5C[C@H](O)CC[C@]5(C)[C@H]4C[C@H](O)[C@]23C)n1,-4,0.45
Cc1ccc(C(=O)Nc2cccc(CCc3ccncc3)c2)cc1Cl,-9,1.15
CCn1c(CC2CCN(C(=O)c3n[nH]c4c3CCC4)CC2)nn(C)c1=O,-6,1.11
CN1C(=O)CCN(C(=O)c2ccccc2OC2CC2)c2ccccc21,1,-0.15
Cc1ccc(CN2C(=O)C3CCCCC3C2=O)cc1S(=O)(=O)N1CCN(C2CCCCC2)CC1 (centres undefined),-19,2.56
CCN(C(=O)C1CCN(S(=O)(=O)c2ccc3c(c2)CCCN3C(=O)C2CCC2)CC1)c1ccccc1,-19,3.66
C[C@H]1CN(C(=O)Nc2ccc3ccn(C)c(=O)c3c2)CCN1,-11,2.33
COc1cccc(NC(=O)Cn2c3ccccc3n3c(=O)cc(-c4cccc(OC)c4)nc23)c1,-11,1.2
CC(=O)N1CC[C@@](N)(C(=O)Nc2cnc3c(c2)CCCC3)C1,2,-0.3
NC1(c2ccccc2)Cc2ccccc2C1,-7,0.94

SMILES,% Inhibition [%],Z score
COCCN1CCC[C@H](C(=O)Nc2c(C)c(C)cc3[nH]c(=O)[nH]c23)C1,-5,0.89
CCCc1cc(C(=O)N(Cc2ccccc2)[C@H]2CCCC[C@@H]2O)[nH]n1,-14,2.12
O=C1c2ccccc2C(=O)N1c1cc(C(F)(F)F)cc(N2C(=O)c3ccccc3C2=O)c1Cl,-26,3.31
N#Cc1c(-c2cccnc2)cc(-c2ccc3ccccc3c2)[nH]c1=O,4,-0.42
CC(=O)c1ccc(S(=O)(=O)N2C3CCC2CC(=C2CC2)C3)cc1,12,-1.55
CCN1C(=O)C2(CCN(C(=O)COc3ccccc3)CC2)C[C@H]1C(=O)NCCOC,2,-0.22
COc1ccc(CN2CCN(C(=O)NC3CCCC3)CC2)cn1,-13,1.66
COC(=O)CNC(=O)[C@H](C)NC(=O)CNC(=O)OCc1ccccc1 (Cbz-Gly-Ala-Gly-OMe),-3,0.38
CC1=CCN(C(=O)Nc2ccc(-c3nncn3C)cc2)CC1,11,-1.52
COc1cc(C)c(S(=O)(=O)Oc2cc(C)nc3ccccc23)cc1C,-10,1.84
CCCS(=O)(=O)NC(=O)c1cccc(Br)c1Cl,-3,0.28
O=C1c2ccccc2C(=O)N1c1ccc(N2C(=O)C3C4CCC(C4)C3C2=O)cc1 (centres undefined),3,-0.41
N#Cc1cc2c([nH]c1=O)CCN(C(=O)c1cnn(-c3ccccc3)n1)C2,-7,1.11
Cc1cnc(C(=O)N(C)C2CCCC2)cn1,-5,0.85
CCOc1ccc(N2C[C@@H](C(=O)N(C)CC(=O)NCc3ccco3)CC2=O)cc1,0,0.04
CCc1nc2cc(NC(=O)C[C@H]3C(=O)NCCN3Cc3ccccc3)ccc2n1CC,-17,1.74
Cc1ccc(C)c(CN(CCc2c[nH]c3ccccc23)Cc2nc(C(=O)NCC3CC3)co2)c1,-5,0.84
N#Cc1ncc(Cl)cc1Br,-14,1.56
Cc1cc(C(=O)Nc2nncs2)c2c(-c3ccccc3F)noc2n1,-3,0.39
